B1: Hsp90Ec E269C (natural protein)
chain: not shown
B2: Hsp90Ec R267C (natural protein)
chain: not shown
B3: Hsp90Ec K354C (natural protein)
chain: not shown
B4: […]Ec D366C (natural protein)
chain: not shown
B5: […]Ec R267C (natural protein)
chain: not shown
B6: […]Ec K354C (natural protein)
chain: not shown
B7: […]Ec Q358C (natural protein)
chain: not shown
B8: Hsp90Ec R355C (natural protein)
chain: not shown
B9: Hsp90Ec G270A/K271A (natural protein)
chain: not shown
B10: Hsp90Ec R355L (natural protein)
chain: not shown

Each binder was assayed against T1, DnaK wild type (E. coli, UniProt P0A6Y8, labeled with 3H (740 cpm/pmol) in the ultrafiltration assay) (assay: cell-based or functional assay).

| Binder | rate of reactivation of heat-denatured luciferase with DnaK, CbpA and GrpE |
| --- | --- |
| B1 | ~50 % of wild type |
| B2 | ~50 % of wild type |
| B3 | ~50 % of wild type |

These binders were tested against T25-DnaK (E. coli, UniProt P0A6Y8) (assay: two-hybrid).

| Binder | β-galactosidase level relative to wild type |
| --- | --- |
| B4 | ~80 % of wild type |
| B5 | ~80 % of wild type |
| B6 | ~80 % of wild type |
| B7 | ~80 % of wild type |

What follows are binders tested against DnaK D45C-biotin (E. coli, UniProt P0A6Y8, D45C, biotin (labeled with a 20-fold excess of Maleimide-PEG11-Biotin)) (assay: pull-down).

| Binder | binding result |
| --- | --- |
| B3 | binds |

What follows are binders tested against T1, DnaK wild type (assay: ultrafiltration assay).

| Binder | Kd [nM] |
| --- | --- |
| B1 | 850 |
| B8 | 1490 |
| B9 | 1530 |
| B10 | 1790 |
